Source: the supplement of paper PMC3334620
The full ranking holds about 33,000 sequences; the median of “E-score (-0.5 to 0.5)” is about -0.043, and the highest 2% start at about 0.37. The list shows a part of the results.

What follows are sequences tested against T1, Upc2 (UniProt Q12151) (assay: PBM E-score (8-mer binding enrichment) (E-score (-0.5 to 0.5)); higher = stronger / more preferred TF binding; most listed sequences are background and not binding sites). Details: protein concentration: 200 nM; construct: GST-full length.
T1 sequence: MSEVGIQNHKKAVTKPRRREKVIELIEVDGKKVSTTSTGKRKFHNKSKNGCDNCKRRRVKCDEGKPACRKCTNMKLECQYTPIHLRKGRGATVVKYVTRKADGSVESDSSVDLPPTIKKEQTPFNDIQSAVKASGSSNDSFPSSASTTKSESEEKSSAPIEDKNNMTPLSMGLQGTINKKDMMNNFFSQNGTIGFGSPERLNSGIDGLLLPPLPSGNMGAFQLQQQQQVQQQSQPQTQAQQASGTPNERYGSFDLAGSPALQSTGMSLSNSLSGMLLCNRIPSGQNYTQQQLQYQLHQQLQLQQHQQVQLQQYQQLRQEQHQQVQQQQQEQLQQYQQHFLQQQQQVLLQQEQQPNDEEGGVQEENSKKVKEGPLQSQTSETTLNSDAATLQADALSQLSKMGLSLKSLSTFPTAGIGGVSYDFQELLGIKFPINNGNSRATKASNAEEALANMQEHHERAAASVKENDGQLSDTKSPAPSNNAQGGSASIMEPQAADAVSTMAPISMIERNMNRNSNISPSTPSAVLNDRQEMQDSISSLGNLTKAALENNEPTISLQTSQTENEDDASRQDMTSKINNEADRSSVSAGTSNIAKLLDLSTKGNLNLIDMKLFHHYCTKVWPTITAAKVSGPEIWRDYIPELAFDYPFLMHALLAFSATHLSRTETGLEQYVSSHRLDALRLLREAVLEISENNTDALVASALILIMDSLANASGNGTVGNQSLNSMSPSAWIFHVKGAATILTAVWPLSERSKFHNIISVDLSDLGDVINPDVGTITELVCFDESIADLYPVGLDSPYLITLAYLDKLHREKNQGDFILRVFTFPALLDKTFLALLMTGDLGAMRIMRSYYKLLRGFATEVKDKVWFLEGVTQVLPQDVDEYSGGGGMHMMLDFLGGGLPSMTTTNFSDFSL
How it was run: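 The E-score, a modified Wilcoxon-Mann-Whitney statistic, was computed by the Universal PBM Analysis Suite for every ungapped eight-base word pooled with its reverse complement. Scans behind it were normalised with masliner after bound GST-tagged yeast transcription factors were detected with fluorescent anti-GST. The proteins, at about 100-200 nM, had been applied to universal all-10-mer Agilent arrays made double-stranded by primer extension.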
For TATAGCAA, the “PBM E-score” value was 0.0967.
For AACCTTGA, the “PBM E-score” value was -0.252.
With CGCCGGAA the “PBM E-score” value was -0.0373.
With ACCGGCCT the “PBM E-score” value was -0.0984.
For CTGTCCCC, the “PBM E-score” value was -0.0777.
In the case of GACACCAA, the “PBM E-score” value is reported as -0.0287.
For GGCGTCCC, the “PBM E-score” value was -0.0589.
In the case of ATAATCTA, the “PBM E-score” value is reported as 0.0375.
CGCCCTAA was tested, and the “PBM E-score” value was -0.139.
With CAGCCAGC the “PBM E-score” value was -0.282.
For ATAAGACC, the “PBM E-score” value was 0.0321.
For CCCACGGA, the “PBM E-score” value was -0.0221.
With AGATTAAT the “PBM E-score” value was -0.039.
With AAGGGTGT the “PBM E-score” value was -0.259.
In the case of ATGGTACG, the “PBM E-score” value is reported as 0.388.
In the case of GGTCTCAC, the “PBM E-score” value is reported as -0.21.
With AATACGGA the “PBM E-score” value was 0.259.
With GGCGCCTA the “PBM E-score” value was -0.106.
For CTTTGTTC, the “PBM E-score” value was 0.0304.
With AACGAGAG the “PBM E-score” value was 0.425.
For TAGAGCTA, the “PBM E-score” value was -0.281.
For CATGATAG, the “PBM E-score” value was -0.202.
CAAAGCGA was tested, and the “PBM E-score” value was 0.0534.
With CCTTGCTC the “PBM E-score” value was -0.0954.
CGAACTTC was tested, and the “PBM E-score” value was 0.119.
In the case of AATTCGTG, the “PBM E-score” value is reported as -0.0513.
For ATGCACAC, the “PBM E-score” value was -0.00432.
ACAAGCAA was tested, and the “PBM E-score” value was -0.0489.
In the case of AAGGACGG, the “PBM E-score” value is reported as -0.22.
CCGTTCCG was tested, and the “PBM E-score” value was 0.323.
In the case of CGATGTAC, the “PBM E-score” value is reported as 0.199.
CTAAGCGC was tested, and the “PBM E-score” value was 0.14.
With CAGCCTGC the “PBM E-score” value was -0.225.
With CAGATTAA the “PBM E-score” value was 0.0152.
In the case of GTCTGAAA, the “PBM E-score” value is reported as -0.0968.
In the case of AACCGTAA, the “PBM E-score” value is reported as 0.233.
In the case of ACCCCAGA, the “PBM E-score” value is reported as -0.242.
With AGCTGCCG the “PBM E-score” value was -0.151.
GTCTACAA was tested, and the “PBM E-score” value was 0.0292.
With AGACCCAG the “PBM E-score” value was -0.32.
In the case of ACCCGCCA, the “PBM E-score” value is reported as 0.0797.
In the case of CTCGGACC, the “PBM E-score” value is reported as 0.19.
With GAATAATC the “PBM E-score” value was 0.182.
GCCCCTAA was tested, and the “PBM E-score” value was -0.112.
For AGCACGTA, the “PBM E-score” value was 0.19.
For CAGTGTGG, the “PBM E-score” value was -0.283.
In the case of CAAACTGC, the “PBM E-score” value is reported as -0.00883.
ACGCGTAC was tested, and the “PBM E-score” value was 0.313.
For GATACGCC, the “PBM E-score” value was 0.189.
CGCATTAG was tested, and the “PBM E-score” value was -0.221.
In the case of CTTACGAC, the “PBM E-score” value is reported as 0.406.
For AAAGTCAG, the “PBM E-score” value was 0.0539.
AAAACAAG was tested, and the “PBM E-score” value was -0.0676.
CGTGCGAG was tested, and the “PBM E-score” value was 0.141.
ACGGGCGC was tested, and the “PBM E-score” value was 0.128.
In the case of AAGCGTAT, the “PBM E-score” value is reported as 0.33.
For AATTAACT, the “PBM E-score” value was 0.0834.
In the case of AAGCGCTA, the “PBM E-score” value is reported as 0.0119.
In the case of CAGCCTAC, the “PBM E-score” value is reported as -0.107.
In the case of CGCGGGCA, the “PBM E-score” value is reported as -0.061.
With CCTCGCCG the “PBM E-score” value was -0.214.
CTCTACGC was tested, and the “PBM E-score” value was 0.0628.
For ATAAAATC, the “PBM E-score” value was 0.00926.
In the case of ACGAGGTG, the “PBM E-score” value is reported as 0.367.
In the case of AGTCACTA, the “PBM E-score” value is reported as 0.0366.
CCCCCATA was tested, and the “PBM E-score” value was -0.0568.
With GCCCGTTA the “PBM E-score” value was 0.15.
In the case of CAAGATGC, the “PBM E-score” value is reported as -0.217.
ATATGCTG was tested, and the “PBM E-score” value was -0.126.
With GCAATACA the “PBM E-score” value was 0.0819.
For CAAGTATC, the “PBM E-score” value was -0.0557.
ACATCGCA was tested, and the “PBM E-score” value was 0.0936.
CATCAGGC was tested, and the “PBM E-score” value was -0.21.
In the case of GCTTCGTA, the “PBM E-score” value is reported as 0.449.
In the case of ATAGGTTG, the “PBM E-score” value is reported as -0.168.
ACCACGCT was tested, and the “PBM E-score” value was -0.0508.
GAGAGTAA was tested, and the “PBM E-score” value was -0.126.
For ACAATGTA, the “PBM E-score” value was 0.0274.
TCACATAA was tested, and the “PBM E-score” value was 0.036.
With ATCGTTAC the “PBM E-score” value was 0.264.
In the case of GCCCGAGC, the “PBM E-score” value is reported as -0.199.
For GACCCCAA, the “PBM E-score” value was -0.0347.
In the case of AGATGTTG, the “PBM E-score” value is reported as -0.202.
For ATGAGGGA, the “PBM E-score” value was -0.0902.
For AGTTTAAA, the “PBM E-score” value was 0.11.
For AGGTCGGG, the “PBM E-score” value was -0.16.
